Hit rate of the full screen: of about 310,000 compounds, about 2,200 (0.71%) showed an effect of 50% or more. Effects have a minus sign here. Some of the results follow.
Target: human ether-à-go-go-related gene (hERG) potassium channel (human, UniProt Q12809)
Assay: primary screen, population patch clamp on CHO cells stably expressing hERG

Chain of human ether-à-go-go-related gene (hERG) potassium channel (Q12809 whole entry, looked up): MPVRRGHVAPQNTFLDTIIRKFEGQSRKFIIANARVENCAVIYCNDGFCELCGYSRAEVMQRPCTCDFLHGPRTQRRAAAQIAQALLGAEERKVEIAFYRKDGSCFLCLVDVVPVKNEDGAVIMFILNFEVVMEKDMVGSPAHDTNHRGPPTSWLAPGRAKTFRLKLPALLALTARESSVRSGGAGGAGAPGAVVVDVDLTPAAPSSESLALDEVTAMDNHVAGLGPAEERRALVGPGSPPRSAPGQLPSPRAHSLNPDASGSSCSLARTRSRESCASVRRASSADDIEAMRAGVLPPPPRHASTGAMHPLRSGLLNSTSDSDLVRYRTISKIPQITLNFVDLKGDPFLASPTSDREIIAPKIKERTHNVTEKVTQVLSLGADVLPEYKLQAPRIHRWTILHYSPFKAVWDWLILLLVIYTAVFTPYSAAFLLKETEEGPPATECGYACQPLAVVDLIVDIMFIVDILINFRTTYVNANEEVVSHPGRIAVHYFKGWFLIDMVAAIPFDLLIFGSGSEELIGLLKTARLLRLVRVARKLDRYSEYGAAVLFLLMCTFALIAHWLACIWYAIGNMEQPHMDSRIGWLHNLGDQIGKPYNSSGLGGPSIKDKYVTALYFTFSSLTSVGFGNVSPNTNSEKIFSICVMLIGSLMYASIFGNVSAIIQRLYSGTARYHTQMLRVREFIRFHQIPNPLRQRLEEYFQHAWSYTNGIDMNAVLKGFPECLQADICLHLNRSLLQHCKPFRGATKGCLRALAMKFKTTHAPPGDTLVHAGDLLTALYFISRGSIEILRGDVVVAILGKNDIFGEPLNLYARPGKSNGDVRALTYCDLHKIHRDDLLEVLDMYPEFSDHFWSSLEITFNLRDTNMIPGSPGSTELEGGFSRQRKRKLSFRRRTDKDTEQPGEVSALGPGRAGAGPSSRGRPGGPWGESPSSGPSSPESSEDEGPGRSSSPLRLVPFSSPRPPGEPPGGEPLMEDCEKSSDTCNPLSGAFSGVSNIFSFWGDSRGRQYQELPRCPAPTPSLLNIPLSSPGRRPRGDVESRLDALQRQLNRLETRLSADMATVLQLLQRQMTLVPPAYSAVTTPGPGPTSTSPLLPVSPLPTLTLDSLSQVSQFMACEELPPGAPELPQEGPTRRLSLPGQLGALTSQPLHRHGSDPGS

SMILES	hERG current change (%, negative = inhibition) at 1uM [%]
Cn1c(=O)c2c(nc(SC3C(=O)CC(C)(C)CC3=O)n2C)n(C)c1=O	10.7
Cc1c(NC(=O)CN2CCN(c3ccc([N+](=O)[O-])cc3)CC2)c(=O)n(-c2ccccc2)n1C	-12.7
O=C(O)c1cccc(NC(=O)c2ccc(N3C(=O)c4ccc(C(=O)Nc5cccc(C(=O)O)c5)cc4C3=O)cc2)c1	4.74
COc1ccc(NC(=O)c2cccc(N3C(=O)C4C5C=CC(C5)C4C3=O)c2)c(OC)c1 (stereo not shown)	4.68
Cc1occc1-c1nnc(SCC(=O)N2CCCCC2)o1	0.0698
COc1cc(NS(=O)(=O)c2ccc(NC(=O)c3ccc([N+](=O)[O-])cc3)cc2)ncn1	10.2
COc1cccc(-c2ccc(=O)n(CC(=O)Nc3cc4c(cc3NC(C)=O)OCCO4)n2)c1	4.84
O=C1CC(C(=O)Nc2ccc(Cl)cc2)n2ncnc2N1 (stereo not shown)	-4.3
Cn1nnnc1SCCNC/C=C/c1ccccc1	-5.29
O=C(COc1ccccc1)Nn1c(-c2ccccc2)nc2ccccc2c1=O	4.07
O=C(Nc1cccc(-c2cn3c(n2)SCC3)c1)c1ccc(Br)o1	8.25
Cc1ccc(NC(=O)C(C)N2C(=O)C3C4CC(C(Br)C4Br)C3C2=O)cc1 (stereo not shown)	9.48
O=C1Nc2ccc(Br)cc2C1(O)Cc1ccncc1 (stereo not shown)	-4.91
CC(=O)c1ccc(S(=O)(=O)NCc2ccc(C(=O)NCC(c3ccccc3)N(C)C)cc2)cc1 (stereo not shown)	11.3
CC(CNC(=O)CCC(=O)N1CCOc2ccccc21)c1ccccc1 (stereo not shown)	7.67
CC12C(=O)N(Cc3ccccc3)C(=O)C1C1C=CC2C1 (stereo not shown)	4.13
CC(C)(C)c1ccc(C(=O)/C(C#N)=C/c2cccs2)cc1	15
CCOC(=O)/C=C1\SCC(=O)N1CC(=O)NC12CC3CC(CC(C3)C1)C2	9.49
Cc1cc(OC(C)C(=O)NCc2cccnc2)c2c(C)c(C)c(=O)oc2c1 (stereo not shown)	15.4
CC1CCCN(C(=O)C(C)Nc2cc(Cl)ccc2N2CCOCC2)C1 (stereo not shown)	2.8
CCCCN(C(=O)c1cc2c(s1)CCC2)c1c(N)n(CCCC)c(=O)[nH]c1=O	8.6
O=[N+]([O-])c1ccccc1NCCNc1ncc(C(F)(F)F)cc1Cl	-6.55
Nc1ccc(-c2nc3ncccc3o2)c(Cl)c1	-4.25
N#CCc1nn(-c2ccc(F)cc2)c(N)c1C#N	4.17
O=C(NCC1CCCO1)c1ccc(N2C(=O)C3CCCCC3C2=O)cc1 (stereo not shown)	6.45
NC(=O)CCN1CCN(C(=O)c2ccc3nc(Cc4cccc(Cl)c4)oc3c2)CC1	-0.116
Cc1cc(C)n(CC2CC(=O)N(c3cc(Cl)cc(Cl)c3)C2=O)n1 (stereo not shown)	6.63
CCN(CCCNC(=O)C1CCN(S(=O)(=O)c2c(C)[nH]c(=O)[nH]c2=O)CC1)c1cccc(C)c1	7.52

SMILES	hERG current change (%, negative = inhibition) at 1uM [%]
COCC(C)Nc1ccc(S(=O)(=O)N2CCCC2)cc1[N+](=O)[O-] (stereo not shown)	8.38
CNC(=O)c1ccc(-c2sc3nc(N4CCOCC4)c4c(c3c2N)CCCC4)o1	-8.43
Cl.O=S(=O)(c1cccc2cnccc12)N1CCCNCC1	18.1
CCOc1ccc(CNCCCSc2ncccn2)cc1	-13.8
CC(Oc1cccc(F)c1)c1ccnc2nc(/N=C/N(C)C)nn12 (stereo not shown)	14.4
CCCn1nnc(NC(=O)c2ccc(F)cc2)n1	3.27
O=C(CN1C(=O)C2C3CC(C(Br)C3Br)C2C1=O)N1CCN(Cc2ccccc2)CC1 (stereo not shown)	7.23
CCOc1ccc(S(=O)(=O)N(C)CC(=O)NCc2ccccn2)cc1	10.7
COc1ccccc1CNCC(=O)Nc1cc(S(=O)(=O)N2CCOCC2)ccc1Cl	10.1
Cn1ccnc1SCC(=O)Nc1cc(S(=O)(=O)N2CCOCC2)ccc1Cl	5.52
CC(C)C(=O)NS(=O)(=O)c1ccc(N)cc1	11.9
S=c1[nH]nc(C2CCCCC2)n1/N=C/c1ccccc1Cl	13.7
CCCCn1c(N)c(N(CCC(C)C)C(=O)CSc2nnc(Nc3ccccc3)s2)c(=O)[nH]c1=O	3.44
COC(=O)C1=COC(C)C2CN3CCc4c([nH]c5ccccc45)C3CC12 (stereo not shown)	9.77
O=C(O)/C=C/C(=O)NNC(=O)c1ccccc1Br	8.31
COc1ccc(OCC(=O)NNC(=S)NC(=O)C2CC2)cc1	5.94
O=C1Cc2ccccc2N1c1ccccc1	-9.54
O=C1CC(=O)Nc2cc(S(=O)(=O)Nc3ccc(Cl)c(C(F)(F)F)c3)ccc2N1	18.7
O=C(O)c1ccc(CSc2nnc(-c3ccncc3)n2-c2ccc(Cl)cc2)cc1	8.8
O=S1(=O)NC(=NCCc2ccccn2)c2ccccc21	8.25
CC(C)(C)OC(=O)N1CCC(CC2CC(c3ccccc3)=NO2)(C(=O)O)CC1 (stereo not shown)	13.7
Cn1c(SCC(=O)NCc2ccc3c(c2)OCO3)nc2c(c1=O)SCC2	2.48
COc1ccc(CNC(=O)C2CCN(S(=O)(=O)N3CC(C)CC(C)C3)CC2)cc1 (stereo not shown)	12.7
CCOc1ccc(NS(=O)(=O)c2c(C(=O)N3CCCCCC3)c(C)n(C)c2C)cc1	7.46
O=[N+]([O-])c1ccc(CSc2nnc(Cc3ccccc3)n2-c2ccc(F)cc2)cc1	10.8
CC1(C)Oc2ccc3ccc(=O)oc3c2[C@@H](O)[C@H]1O	10.3
CC(=O)N/C(=C\c1ccccc1)C(=O)OC(C)C(=O)Nc1ccccc1F (stereo not shown)	5.92

Reference: PMC4336329 (PLoS ONE, 2015)
